# In publication PMC12820563, “FoxP3 forms a head-to-head dimer in vivo and stabilizes its multimerization on adjacent microsatellites”:
# The list shows a part of the results.
# Target: T1, MBP-FoxP1dN (Mus musculus, UniProt P58462 326-579)
# T1 sequence: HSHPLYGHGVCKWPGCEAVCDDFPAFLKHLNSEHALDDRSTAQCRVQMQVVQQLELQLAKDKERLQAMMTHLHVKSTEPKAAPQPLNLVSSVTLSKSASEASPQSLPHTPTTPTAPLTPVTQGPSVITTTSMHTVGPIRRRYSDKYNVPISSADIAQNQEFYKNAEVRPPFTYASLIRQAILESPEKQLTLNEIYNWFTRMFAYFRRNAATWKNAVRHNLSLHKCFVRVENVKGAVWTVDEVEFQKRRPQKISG
# Assay: PD-seq (MBP pull-down with sequencing); 20 mM Tris-HCl pH 7.5, 100 mM NaCl, 1.5 mM MgCl2, 0.4 uM protein, 0.1 uM dsDNA library, 30 min, room temperature, amylose pull-down; high values mean tight binding
# Details: protein: recombinant; tags: His6-MBP; chain copies: 2; dsDNA, one strand shown
# Method in brief: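 Binding is reads-per-million enrichment of pull-down over input, with replicates pooled. It comes from 30 min room-temperature incubation in Tris pH 7.5 buffer with NaCl and MgCl2 of 0.4 µM His6-MBP-tagged, N-terminally truncated mouse FoxP3 or FoxP1 fragment from E. coli with 0.1 µM Klenow-filled degenerate double-stranded DNA library, followed by amylose resin capture, three washes and Illumina sequencing of the released DNA.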
row,Sequence,binding signal
1,GATGATTGTTCTCCCAGCTGATGAATTTCAAACTTCGAGTAAACAAATTTTCCTAATCTTTCTGTTCAAGCGCCATCTAC,0.896 RPM ratio (pull-down/input)
2,GATGATTGTTCTCCCAGCTGATGAATTATTGTTGTCGAGTAAACAAATTTTCCTAATCTTTCTGTTCAAGCGCCATCTAC,3.22 RPM ratio (pull-down/input)
3,GATGATTGTTCTCCCAGCTGATGAATTCACCCGCTCGAGTAAACAAATTTTCCTAATCTTTCTGTTCAAGCGCCATCTAC,0.851 RPM ratio (pull-down/input)
4,GATGATTGTTCTCCCAGCTGATGAATTGAGAAGTTCGAGTAAACAAATTTTCCTAATCTTTCTGTTCAAGCGCCATCTAC,0.799 RPM ratio (pull-down/input)
5,GATGATTGTTCTCCCAGCTGATGAATTTCTATGTTCGAGTAAACAAATTTTCCTAATCTTTCTGTTCAAGCGCCATCTAC,1.05 RPM ratio (pull-down/input)
6,GATGATTGTTCTCCCAGCTGATGAATTCATAGTCTCGAGTAAACAAATTTTCCTAATCTTTCTGTTCAAGCGCCATCTAC,0.82 RPM ratio (pull-down/input)
7,GATGATTGTTCTCCCAGCTGATGAATTGCCTGGTTCGAGTAAACAAATTTTCCTAATCTTTCTGTTCAAGCGCCATCTAC,0.956 RPM ratio (pull-down/input)
8,GATGATTGTTCTCCCAGCTGATGAATTTGAGTCATCGAGTAAACAAATTTTCCTAATCTTTCTGTTCAAGCGCCATCTAC,0.999 RPM ratio (pull-down/input)
9,GATGATTGTTCTCCCAGCTGATGAATTGAATAACTCGAGTAAACAAATTTTCCTAATCTTTCTGTTCAAGCGCCATCTAC,0.899 RPM ratio (pull-down/input)
10,GATGATTGTTCTCCCAGCTGATGAATTATACAGCTCGAGTAAACAAATTTTCCTAATCTTTCTGTTCAAGCGCCATCTAC,1.03 RPM ratio (pull-down/input)
11,GATGATTGTTCTCCCAGCTGATGAATTAAGGTGCTCGAGTAAACAAATTTTCCTAATCTTTCTGTTCAAGCGCCATCTAC,0.849 RPM ratio (pull-down/input)
12,GATGATTGTTCTCCCAGCTGATGAATTTTAAGATTCGAGTAAACAAATTTTCCTAATCTTTCTGTTCAAGCGCCATCTAC,0.874 RPM ratio (pull-down/input)
13,GATGATTGTTCTCCCAGCTGATGAATTCGTGTTATCGAGTAAACAAATTTTCCTAATCTTTCTGTTCAAGCGCCATCTAC,1.64 RPM ratio (pull-down/input)
14,GATGATTGTTCTCCCAGCTGATGAATTACTAATCTCGAGTAAACAAATTTTCCTAATCTTTCTGTTCAAGCGCCATCTAC,1.17 RPM ratio (pull-down/input)
15,GATGATTGTTCTCCCAGCTGATGAATTTGGCGCCTCGAGTAAACAAATTTTCCTAATCTTTCTGTTCAAGCGCCATCTAC,0.916 RPM ratio (pull-down/input)
16,GATGATTGTTCTCCCAGCTGATGAATTGCTAGACTCGAGTAAACAAATTTTCCTAATCTTTCTGTTCAAGCGCCATCTAC,0.967 RPM ratio (pull-down/input)
17,GATGATTGTTCTCCCAGCTGATGAATTATGACTATCGAGTAAACAAATTTTCCTAATCTTTCTGTTCAAGCGCCATCTAC,1.07 RPM ratio (pull-down/input)
18,GATGATTGTTCTCCCAGCTGATGAATTAACGCTTTCGAGTAAACAAATTTTCCTAATCTTTCTGTTCAAGCGCCATCTAC,1.04 RPM ratio (pull-down/input)
19,GATGATTGTTCTCCCAGCTGATGAATTTGAGTTCTCGAGTAAACAAATTTTCCTAATCTTTCTGTTCAAGCGCCATCTAC,0.776 RPM ratio (pull-down/input)
20,GATGATTGTTCTCCCAGCTGATGAATTATCAGCCTCGAGTAAACAAATTTTCCTAATCTTTCTGTTCAAGCGCCATCTAC,0.932 RPM ratio (pull-down/input)
21,GATGATTGTTCTCCCAGCTGATGAATTTGGGTGGTCGAGTAAACAAATTTTCCTAATCTTTCTGTTCAAGCGCCATCTAC,0.809 RPM ratio (pull-down/input)

row,Sequence,binding signal
1,GATGATTGTTCTCCCAGCTGATGAATTCAGAACCTCGAGTAAACAAATTTTCCTAATCTTTCTGTTCAAGCGCCATCTAC,0.767 RPM ratio (pull-down/input)
2,GATGATTGTTCTCCCAGCTGATGAATTGTAGTACTCGAGTAAACAAATTTTCCTAATCTTTCTGTTCAAGCGCCATCTAC,1.11 RPM ratio (pull-down/input)
3,GATGATTGTTCTCCCAGCTGATGAATTGACATCGTCGAGTAAACAAATTTTCCTAATCTTTCTGTTCAAGCGCCATCTAC,1.21 RPM ratio (pull-down/input)
4,GATGATTGTTCTCCCAGCTGATGAATTAGTTTTTTCGAGTAAACAAATTTTCCTAATCTTTCTGTTCAAGCGCCATCTAC,1.19 RPM ratio (pull-down/input)
5,GATGATTGTTCTCCCAGCTGATGAATTAACACGGTCGAGTAAACAAATTTTCCTAATCTTTCTGTTCAAGCGCCATCTAC,0.913 RPM ratio (pull-down/input)
6,GATGATTGTTCTCCCAGCTGATGAATTGGTCTGTTCGAGTAAACAAATTTTCCTAATCTTTCTGTTCAAGCGCCATCTAC,0.824 RPM ratio (pull-down/input)
7,GATGATTGTTCTCCCAGCTGATGAATTATGTTGCTCGAGTAAACAAATTTTCCTAATCTTTCTGTTCAAGCGCCATCTAC,1.59 RPM ratio (pull-down/input)
8,GATGATTGTTCTCCCAGCTGATGAATTAGAATTGTCGAGTAAACAAATTTTCCTAATCTTTCTGTTCAAGCGCCATCTAC,0.977 RPM ratio (pull-down/input)
9,GATGATTGTTCTCCCAGCTGATGAATTCGGCAGTTCGAGTAAACAAATTTTCCTAATCTTTCTGTTCAAGCGCCATCTAC,0.783 RPM ratio (pull-down/input)
10,GATGATTGTTCTCCCAGCTGATGAATTAGTAGCGTCGAGTAAACAAATTTTCCTAATCTTTCTGTTCAAGCGCCATCTAC,0.975 RPM ratio (pull-down/input)
11,GATGATTGTTCTCCCAGCTGATGAATTTGTATAGTCGAGTAAACAAATTTTCCTAATCTTTCTGTTCAAGCGCCATCTAC,1.26 RPM ratio (pull-down/input)
12,GATGATTGTTCTCCCAGCTGATGAATTGGTGTGCTCGAGTAAACAAATTTTCCTAATCTTTCTGTTCAAGCGCCATCTAC,0.936 RPM ratio (pull-down/input)
13,GATGATTGTTCTCCCAGCTGATGAATTTAACGACTCGAGTAAACAAATTTTCCTAATCTTTCTGTTCAAGCGCCATCTAC,0.649 RPM ratio (pull-down/input)
14,GATGATTGTTCTCCCAGCTGATGAATTCAAAAAGTCGAGTAAACAAATTTTCCTAATCTTTCTGTTCAAGCGCCATCTAC,0.844 RPM ratio (pull-down/input)
15,GATGATTGTTCTCCCAGCTGATGAATTGAGACTTTCGAGTAAACAAATTTTCCTAATCTTTCTGTTCAAGCGCCATCTAC,0.884 RPM ratio (pull-down/input)
16,GATGATTGTTCTCCCAGCTGATGAATTAGGAAGATCGAGTAAACAAATTTTCCTAATCTTTCTGTTCAAGCGCCATCTAC,0.882 RPM ratio (pull-down/input)
17,GATGATTGTTCTCCCAGCTGATGAATTGGGGGTTTCGAGTAAACAAATTTTCCTAATCTTTCTGTTCAAGCGCCATCTAC,0.804 RPM ratio (pull-down/input)
18,GATGATTGTTCTCCCAGCTGATGAATTATACAATTCGAGTAAACAAATTTTCCTAATCTTTCTGTTCAAGCGCCATCTAC,1.4 RPM ratio (pull-down/input)
19,GATGATTGTTCTCCCAGCTGATGAATTTGGAAGTTCGAGTAAACAAATTTTCCTAATCTTTCTGTTCAAGCGCCATCTAC,0.915 RPM ratio (pull-down/input)
20,GATGATTGTTCTCCCAGCTGATGAATTTAGAACCTCGAGTAAACAAATTTTCCTAATCTTTCTGTTCAAGCGCCATCTAC,0.936 RPM ratio (pull-down/input)
21,GATGATTGTTCTCCCAGCTGATGAATTAATACCCTCGAGTAAACAAATTTTCCTAATCTTTCTGTTCAAGCGCCATCTAC,1.06 RPM ratio (pull-down/input)

row,Sequence,binding signal
1,GATGATTGTTCTCCCAGCTGATGAATTGAGTTATTCGAGTAAACAAATTTTCCTAATCTTTCTGTTCAAGCGCCATCTAC,1.06 RPM ratio (pull-down/input)
2,GATGATTGTTCTCCCAGCTGATGAATTCGCTCGGTCGAGTAAACAAATTTTCCTAATCTTTCTGTTCAAGCGCCATCTAC,0.762 RPM ratio (pull-down/input)
3,GATGATTGTTCTCCCAGCTGATGAATTCGAGCCTTCGAGTAAACAAATTTTCCTAATCTTTCTGTTCAAGCGCCATCTAC,0.862 RPM ratio (pull-down/input)
4,GATGATTGTTCTCCCAGCTGATGAATTGGATAGCTCGAGTAAACAAATTTTCCTAATCTTTCTGTTCAAGCGCCATCTAC,0.85 RPM ratio (pull-down/input)
5,GATGATTGTTCTCCCAGCTGATGAATTGCAAATATCGAGTAAACAAATTTTCCTAATCTTTCTGTTCAAGCGCCATCTAC,1.85 RPM ratio (pull-down/input)
6,GATGATTGTTCTCCCAGCTGATGAATTATAGGATTCGAGTAAACAAATTTTCCTAATCTTTCTGTTCAAGCGCCATCTAC,0.909 RPM ratio (pull-down/input)
7,GATGATTGTTCTCCCAGCTGATGAATTATTGGCATCGAGTAAACAAATTTTCCTAATCTTTCTGTTCAAGCGCCATCTAC,1.31 RPM ratio (pull-down/input)
8,GATGATTGTTCTCCCAGCTGATGAATTTCTACGATCGAGTAAACAAATTTTCCTAATCTTTCTGTTCAAGCGCCATCTAC,0.948 RPM ratio (pull-down/input)
9,GATGATTGTTCTCCCAGCTGATGAATTGGACCCCTCGAGTAAACAAATTTTCCTAATCTTTCTGTTCAAGCGCCATCTAC,0.748 RPM ratio (pull-down/input)
10,GATGATTGTTCTCCCAGCTGATGAATTCGCCCGGTCGAGTAAACAAATTTTCCTAATCTTTCTGTTCAAGCGCCATCTAC,0.767 RPM ratio (pull-down/input)
11,GATGATTGTTCTCCCAGCTGATGAATTCGGGCACTCGAGTAAACAAATTTTCCTAATCTTTCTGTTCAAGCGCCATCTAC,0.858 RPM ratio (pull-down/input)
12,GATGATTGTTCTCCCAGCTGATGAATTTAGGGCCTCGAGTAAACAAATTTTCCTAATCTTTCTGTTCAAGCGCCATCTAC,0.861 RPM ratio (pull-down/input)
13,GATGATTGTTCTCCCAGCTGATGAATTCGGTGCGTCGAGTAAACAAATTTTCCTAATCTTTCTGTTCAAGCGCCATCTAC,0.966 RPM ratio (pull-down/input)
14,GATGATTGTTCTCCCAGCTGATGAATTACCTGTGTCGAGTAAACAAATTTTCCTAATCTTTCTGTTCAAGCGCCATCTAC,1.05 RPM ratio (pull-down/input)
15,GATGATTGTTCTCCCAGCTGATGAATTTGACATTTCGAGTAAACAAATTTTCCTAATCTTTCTGTTCAAGCGCCATCTAC,0.878 RPM ratio (pull-down/input)
16,GATGATTGTTCTCCCAGCTGATGAATTGTTGCCATCGAGTAAACAAATTTTCCTAATCTTTCTGTTCAAGCGCCATCTAC,1.53 RPM ratio (pull-down/input)
17,GATGATTGTTCTCCCAGCTGATGAATTGTTCGGATCGAGTAAACAAATTTTCCTAATCTTTCTGTTCAAGCGCCATCTAC,1.02 RPM ratio (pull-down/input)
18,GATGATTGTTCTCCCAGCTGATGAATTGAGGCAGTCGAGTAAACAAATTTTCCTAATCTTTCTGTTCAAGCGCCATCTAC,0.928 RPM ratio (pull-down/input)
19,GATGATTGTTCTCCCAGCTGATGAATTCTATTAGTCGAGTAAACAAATTTTCCTAATCTTTCTGTTCAAGCGCCATCTAC,1.14 RPM ratio (pull-down/input)
20,GATGATTGTTCTCCCAGCTGATGAATTACCTGGGTCGAGTAAACAAATTTTCCTAATCTTTCTGTTCAAGCGCCATCTAC,0.871 RPM ratio (pull-down/input)
21,GATGATTGTTCTCCCAGCTGATGAATTCGCCGGATCGAGTAAACAAATTTTCCTAATCTTTCTGTTCAAGCGCCATCTAC,0.812 RPM ratio (pull-down/input)
